Experimental data taken from US9803019B2, “Carrier immunoglobulins and uses thereof” (Amgen Inc., priority 2010, dated 2017).
Changes are numbered by the printed parent chain. In names and notes the source's numbering stands.

Tests used:
huIL-17R = target: T1, huIL-17R (Homo sapiens, UniProt Q96F46); assay: BIAcore solution equilibrium binding assay to huIL-17R (16429 immobilized); details: for IL-17R binding capability: 10 nM, 100 nM and 1000 nM antibody incubated with 10 nM IL-17R (FIG. 2A); for IL-17R binding activity: 30 μM antibody with 30 nM IL-17R (FIG. 2B)
T1 construct: FLAG (the F of FpH); polyHis (the pH of FpH)
T1 sequence (Q96F46 with tags, fused parts or gaps): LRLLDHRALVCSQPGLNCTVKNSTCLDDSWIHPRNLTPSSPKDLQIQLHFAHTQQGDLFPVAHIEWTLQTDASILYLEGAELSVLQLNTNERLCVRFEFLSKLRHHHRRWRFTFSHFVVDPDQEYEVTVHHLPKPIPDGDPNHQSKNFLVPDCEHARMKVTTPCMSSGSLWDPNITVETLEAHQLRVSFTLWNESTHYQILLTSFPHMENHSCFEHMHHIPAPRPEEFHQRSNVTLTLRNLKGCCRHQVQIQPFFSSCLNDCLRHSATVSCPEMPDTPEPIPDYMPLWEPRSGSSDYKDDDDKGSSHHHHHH
Experimental: Antibody 16429 was immobilized to a CM5 sensor chip, and 10 nM of IL-17R in the absence of antibody was used to establish the 100% binding signal of […] that is free of antibody binding in solution. In FIG. 2A, 10 nM, 100 nM and 1000 nM of indicated antibody samples were incubated with the 10 nM IL-17R to determine antibody binding in solution. In FIG. 2B, 30,000 nM of the antibody samples were incubated with 30 nM IL-17R to determine antibody binding in solution. In FIGS. 2A-B, The decreased binding signal of IL-17R after the antibody incubation indicates the binding of the antibody to IL-17R in solution.
A reference antigen binding protein (e.g., Antibody 16429 for human IL-17R or Antibody 16449 for human TR2) is immobilized to a BIACore® 2000, research grade sensor chip CM5 surface according to manufacturer's instructions (BIACore, Inc., Piscataway, N.J.). Carboxyl groups on the sensor chip surfaces are activated by injecting 60 μL of a mixture containing 0.2 M N-ethyl-N′-(dimethylaminopropyl) carbodiimide (EDC) and 0.05 M N-hydroxysuccinimide (NHS). The reference antigen binding protein is diluted in 10 mM sodium acetate, pH 4.0 and injected over the activated chip surface at 30 μL/min for 6 minutes. Excess reactive groups on the surfaces are deactivated by injecting 60 μL of 1 M ethanolamine. The final immobilized level is typically approximately 6600 resonance units (RU). Soluble target antigen (e.g., 10 nM of soluble human IL-17R or 30 nM of soluble human TR2) in the absence of soluble antigen binding protein (e.g., antibody) is used to establish the 100% binding signal to the fixed reference antigen binding protein (e.g., the positive control antibody). The decreased binding signal of the target antigen after incubation of the test immunoglobulin indicates its level of binding to the target antigen in solution.
The lead candidates were then selected based on lack of binding to the IL-17R extracellular domain as determined by BIAcore analysis. Antibody 16429 is a human antibody that specifically binds to huIL-17R. A solution equilibrium binding assay was developed to assess the binding activity of a set of antibodies to huIL-17R. Antibody 16429 was immobilized to a BIACore® 2000, research grade sensor chip CM5 surface according to manufacturer's instructions (BIACore, Inc., Piscataway, N.J.). Briefly, carboxyl groups on the sensor chip surfaces were activated by injecting 60 μL of a mixture containing 0.2 M N-ethyl-N′-(dimethylaminopropyl) carbodiimide (EDC) and 0.05 M N-hydroxysuccinimide (NHS). Antibody 16429 was diluted in 10 mM sodium acetate, pH 4.0 and injected over the activated chip surface at 30 μL/min for 6 minutes. Excess reactive groups on the surfaces were deactivated by injecting 60 μL of 1 M ethanolamine. […]

[1] = Rat PK, single SC dose (Example 4); type: in vivo, Sprague-Dawley rats; details: 5 mg/kg subcutaneously
Experimental: Serum concentrations were then determined using an anti-human Fc based ELISA.
The pharmacokinetic profile of the 16435, 16444, 4241, and 4341 carrier antibodies was determined in adult Sprague-Dawley rats (8-12 weeks old) by injecting 5 mg/kg subcutaneously and collecting approximately 250 μL of blood in Microtainer® serum separator tubes at 0, 0.25, 1, 4, 24, 48, 72, 96, 168, 336, 504, 672, 840 and 1008 hours post-dose from the lateral tail vein. Each sample was maintained at room temperature following collection, and following a 30-40 minute clotting period, samples were centrifuged at 2-8° C. at 11,500 rpm for about 10 minutes using a calibrated Eppendorf 5417R Centrifuge System (Brinkmann Instruments, Inc., Westbury, N.Y.). The collected serum was then transferred into a pre-labeled (for each rat), cryogenic storage tube and stored at −60° C. to −80° C. for future analysis. To measure the serum sample concentrations from the PK study samples, the following method was used: ½ area black plate (Corning 3694) was coated with 2 μg/ml of anti-hu Fc, antibody 1.35.1 in PBS and then incubated overnight at 4° C. The plate was then washed and blocked with I-Block™ (Applied Biosystems) overnight at 4° C. […] The plate was washed, then 50 μl of Pico substrate were added, after which the plate was immediately analyzed with a luminometer.

B1: 16435 (antibody)
heavy: MEWTWRVLFLVAAATGAHSQVQLVQSGAEVKKPGASVKVSCKASGYTFTRYGISWVRQAPGQGLEWMGWISTYSGNTNYAQKLQGRVTMTTDTSTSTAYMELRSLRSDDTAVYYCARAQLYFDYWGQGTLVTVSSASTKGPSVFPLAPCSRSTSESTAALGCLVKDYFPEPVTVSWNSGALTSGVHTFPAVLQSSGLYSLSSVVTVPSSNFGTQTYTCNVDHKPSNTKVDKTVERKCCVECPPCPAPPVAGPSVFLFPPKPKDTLMISRTPEVTCVVVDVSHEDPEVQFNWYVDGVEVHNAKTKPREEQFNSTFRVVSVLTVVHQDWLNGKEYKCKVSNKGLPAPIEKTISKTKGQPREPQVYTLPPSREEMTKNQVSLTCLVKGFYPSDIAVEWESNGQPENNYKTTPPMLDSDGSFFLYSKLTVDKSRWQQGNVFSCSVMHEALHNHYTQKSLSLSPGK
light: EIVMTQSPATLSVSPGERATLSCRASQSVSSNLAWFQQKPGQAPRLLIYDASTRATGVPARFSGSGSGTEFTLTISSLQSEDFAVYYCQQYDNWPLTFGGGTKVEIKRTVAAPSVFIFPPSDEQLKSGTASVVCLLNNFYPREAKVQWKVDNALQSGNSQESVTEQDSKDSTYSLSSTLTLSKADYEKHKVYACEVTHQGLSSPVTKSFNRGEC
modifications: 16435 (LC: P66L, D90E)
- IL-17R binding capability (huIL-17R): substantial reduction in IL-17R binding capability
- IL-17R binding activity (huIL-17R): no significant IL-17R binding activity
- AUC0-t±SD [1]: 18,492±2,104 μg/h/mL

B2: 16444 (antibody)
heavy: B1 heavy with L120Q
light: B1 light with W94A
modifications: 16444 (LC: P66L, D90E, W114A)
- IL-17R binding capability (huIL-17R): substantial reduction in IL-17R binding capability
- IL-17R binding activity (huIL-17R): no significant IL-17R binding activity
- AUC0-t±SD [1]: 21,021±2,832 μg/h/mL
